Assay results as given in PubChem BioAssay AID1030 (National Center for Advancing Translational Sciences (NCATS), 2008).
Out of some 220,000 compounds screened, about 16,000 (7.3%) were called active. Inconclusive means that the source gave no clear call. Such entries were picked first, then a sample of the others. The call rests on the fitted dose curve; in most records, active means well fitted inhibition curve with a large enough effect (not every such curve was filed as active); inconclusive means small, poorly fitted or top-dose-only effect, or another doubt; inactive means no such curve, though single readings can be large or run the other way. Potencies of inconclusive entries are left out as doubtful fits.
Potency means the concentration at half of the fitted maximal effect; tags describe the fitted curve by direction and shape.
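Wherever activity, negative = inhibition is given: plate controls were no enzyme wells and a reference inhibitor.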

These molecules were tested against Aldehyde dehydrogenase 1A1 (Homo sapiens) (UniProt P00352) (assay: qHTS Assay for Inhibitors of Aldehyde Dehydrogenase 1 (ALDH1A1)). Details: Purified ALDH1A1, NADH fluorescence, propionaldehyde substrate; series mostly up to 75.3 µM; activity, negative = inhibition: at the top concentration.
UniProt P00352, sequence (P00352 whole entry, looked up): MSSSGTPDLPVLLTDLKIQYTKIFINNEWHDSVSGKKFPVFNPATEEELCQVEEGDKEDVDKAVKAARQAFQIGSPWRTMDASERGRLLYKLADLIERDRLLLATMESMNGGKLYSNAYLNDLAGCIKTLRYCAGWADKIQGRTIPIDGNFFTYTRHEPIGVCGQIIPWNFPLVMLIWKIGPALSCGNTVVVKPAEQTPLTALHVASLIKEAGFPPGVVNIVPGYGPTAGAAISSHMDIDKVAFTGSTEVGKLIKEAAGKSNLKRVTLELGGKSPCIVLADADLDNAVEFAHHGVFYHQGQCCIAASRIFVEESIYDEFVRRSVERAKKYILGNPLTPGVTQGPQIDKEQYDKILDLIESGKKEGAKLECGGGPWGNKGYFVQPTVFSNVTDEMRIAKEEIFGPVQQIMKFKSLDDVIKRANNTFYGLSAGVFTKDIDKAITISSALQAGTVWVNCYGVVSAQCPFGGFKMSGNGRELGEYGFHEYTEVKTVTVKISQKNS
In the case of `c1ccc(Nc2nc3ccccc3[nH]2)nc1`, the Potency is reported as inconclusive [inhibitor, single point].
For `CCC(CC)c1nnc(NC(=O)c2nn(C)c(=O)c3ccccc23)s1`, the Potency was inconclusive [inhibitor, partial curve].
In the case of `CCn1nc(C)cc1C(=O)N1CCCC(C(=O)c2ccc3ccccc3c2)C1` (configuration not stated), the Potency is reported as inconclusive [inhibitor, single point].
With `COc1ccc(N2CCN(C3CC(=O)N(c4ccc5c(c4)OCCO5)C3=O)CC2)cc1` (configuration not stated) the Potency was inconclusive [inhibitor, single point].
`Oc1cccc2c(NC(=S)Nc3ccc(OC(F)F)cc3)cccc12` was tested, and the Potency was inconclusive [inhibitor, partial curve].
`CC(NCC(=O)Nc1cc(S(=O)(=O)N2CCCCCC2)ccc1Cl)c1ccccc1` (configuration not stated) was tested, and the Potency was inconclusive [inhibitor, single point].
`CCOC(=O)/C(C#N)=N/Nc1ccc(S(=O)(=O)N2CCc3ccccc32)cc1` was tested, and the “activity, negative = inhibition” value was inactive: -12.9%.
`CC(=O)c1cc2c(cc1NC(=O)c1ccc(C)cc1)OCO2` was tested, and the Potency was inconclusive [inhibitor, partial curve].
For `CCOc1ccc(S(=O)(=O)Nc2nc3ccccc3nc2-n2ccc(=NC(=O)c3cccs3)cc2)cc1`, the Potency was inconclusive [inhibitor, partial curve].
With `Cc1oc2ccc(NS(=O)(=O)c3ccccc3)cc2c1C(=O)Nc1ccccc1` the Potency was inconclusive [inhibitor, single point].
For `CCCc1nc(SCC(=O)c2ccc(F)cc2)c2ccccc2n1`, the Potency was active: 17.8 µM.
For `Clc1ccc2nnnc(-c3ccccc3)c2c1`, the “activity, negative = inhibition” value was inactive: 5.38%.
In the case of `O=C1NC(=O)/C(=C\c2ccc(Oc3ccc([N+](=O)[O-])cn3)cc2)S1`, the Potency is reported as inconclusive [inhibitor, single point].
With `O=C(Nc1nnc(SCc2ccccc2)s1)c1ccco1` the Potency was inconclusive [inhibitor, single point].
`Cc1cc(C)cc(OCC(=O)Nc2nc3ccc([N+](=O)[O-])cc3s2)c1` was tested, and the “activity, negative = inhibition” value was inactive: -5.6%.
With `O=C(O)Cc1sc(-c2ccccc2)nc1-c1cccs1` the Potency was inconclusive [inhibitor, single point].
For `COC(=O)c1ccc2nc(C)cc(Nc3ccc(N(C)C)cc3)c2c1`, the Potency was inconclusive [inhibitor, single point].
`O=C(CSc1nc2ccccc2s1)Nc1cc(S(=O)(=O)N2CCOCC2)ccc1O` was tested, and the “activity, negative = inhibition” value was inactive: 0.99%.
In the case of `C#CCCOC(=O)N1C2=NC(C(=O)OC)=C(C(=O)OC)[C@@H]3N(C)c4ccc(OC)cc4[C@]23C[C@H]1C(=O)OC`, the activity, negative = inhibition is reported as inactive: 4.88% [at 13.5 µM].
For `CC12CC(c3ccccc3O1)C(C(=O)N1CCOCC1)C(=O)N2` (configuration not stated), the Potency was inconclusive [inhibitor, single point].
`Cc1ccc2nc(-c3ccsc3)c(NC3CCCC3)n2c1` was tested, and the Potency was inconclusive [inhibitor, partial curve].
For `CCCCNS(=O)(=O)c1ccc(OC)c(Cl)c1Cl`, the Potency was inconclusive [inhibitor, single point].
`O=C(CCSc1ccccc1)Nc1nc2c(s1)COc1ccccc1-2` was tested, and the Potency was active: 14.1 µM.
`Cc1cccc(S(=O)(=O)NCCc2ccccc2)c1` was tested, and the Potency was inconclusive [inhibitor, single point].
For `CCN1C(=O)/C(=C\N2CCCCCC2)SC1=S`, the Potency was inconclusive [inhibitor, partial curve].
With `Cc1c(C(=O)NCc2ccc3c(c2)OCO3)oc2ccc(S(=O)(=O)N3CCCCCC3)cc12` the Potency was inconclusive [inhibitor, single point].
In the case of `Cc1ccc(NC(=O)CNCc2ccccc2)cc1Br`, the Potency is reported as inconclusive [inhibitor, single point].
In the case of `CCC(=O)N1CCCc2cc(S(=O)(=O)N3CCCc4ccccc43)ccc21`, the Potency is reported as active: 17.8 µM.
With `O=C(C[n+]1cccc2ccccc21)c1ccccc1` the Potency was inconclusive [inhibitor, partial curve].
`Cc1cccc(C)c1NC(=O)CCCSc1nnc(-c2ccco2)n1-c1ccccc1` was tested, and the Potency was active: 25.1 µM.
For `Cc1cc(C)n(-c2nc(NCc3cccnc3)c3c4c(sc3n2)COC(C)(C)C4)n1`, the Potency was inconclusive [inhibitor, partial curve].
With `CO[C@]12C(COC(N)=O)C3=C(C(=O)C(C)=C(N)C3=O)N1CC1NC12` (some centres not stated) the “activity, negative = inhibition” value was inactive: -3.09%.
For `Cn1c(Cc2ccccc2)nnc1SCC(=O)Nc1ccccc1N1CCOCC1`, the “activity, negative = inhibition” value was inactive: 7.03%.
`COc1ccc(NC(=S)NCCCN2CCCC2=O)c(OC)c1` was tested, and the Potency was inconclusive [inhibitor, single point].
In the case of `CC1(C)[C@@H]2CC[C@@]1(CS(=O)(=O)Nc1ccccc1)C(=O)C2`, the activity, negative = inhibition is reported as inactive: 15.3% [at 13.5 µM].
With `COc1ccc(C(=O)/C=C/Nc2ccc(S(=O)(=O)Nc3nc(C)cc(C)n3)cc2)cc1OC` the Potency was inconclusive [inhibitor, single point].
With `COc1ccc(NC(=O)Cn2c(=O)n(-c3ccccc3)c(=O)c3oc4ccccc4c32)c(OC)c1` the Potency was inconclusive [inhibitor, single point].
For `COc1ccc(/C=C/C(=O)C23CC4CC(CC(C4)C2)C3)cc1CN1CCOCC1`, the Potency was inconclusive [inhibitor, single point].
With `O=C(Nc1ccc2c(c1)CCC2)Nc1ccc2c(c1)OCO2` the “activity, negative = inhibition” value was inactive: 5.24%.
With `Cc1c(-c2ccco2)[n+](=O)c2c(n1[O-])CCCCC2` the Potency was inconclusive [inhibitor, single point].
With `CNc1ncnc(Sc2ccc(Cl)cc2)c1[N+](=O)[O-]` the “activity, negative = inhibition” value was inactive: 5.36%.
`N#Cc1ccc(COn2nnc3ccccc32)cc1` was tested, and the “activity, negative = inhibition” value was inactive: -3.88%.
`Cc1nc2ccccc2c(=O)n1NC(=O)c1cccc([N+](=O)[O-])c1` was tested, and the “activity, negative = inhibition” value was inactive: 3.65%.
With `CC1CCN(CCCCOc2ccccc2-c2ccccc2)CC1` the Potency was inconclusive [inhibitor, single point].
For `O=c1c2ccccc2nc(SCc2ccccc2)n1Cc1ccco1`, the Potency was active: 20 µM.
For `CCSC1=NCCN1C(=O)c1ccc(S(=O)(=O)N(CC)CC)cc1`, the “activity, negative = inhibition” value was inactive: -7.18%.
`Cc1ccc(S(=O)(=O)N(CCO)Cc2cc3ccc(C)c(C)c3[nH]c2=O)cc1` was tested, and the Potency was inconclusive [inhibitor, partial curve].
`CCOC(=O)CCc1c(C)c2ccc(OCC(=O)N(CC)CC)c(C)c2oc1=O` was tested, and the Potency was inconclusive [inhibitor, partial curve].
`CN(C)/N=C/c1ccc(Sc2ccccc2[N+](=O)[O-])o1` was tested, and the Potency was inconclusive [inhibitor, single point].
With `C/C(Cl)=C\CSc1nnc2n(N)c(=O)c3ccccc3n12` the Potency was active: 17.8 µM.
With `O=C(Nc1cccc(C(F)(F)F)c1)c1cc(S(=O)(=O)N2CCCCC2)ccc1N1CCOCC1` the Potency was inconclusive [inhibitor, single point].
`Cc1[nH]c(=O)[nH]c(=O)c1Cc1cccc2ccccc12` was tested, and the Potency was active: 10 µM.
With `CNC(=O)/C(=C\c1ccc2c(c1)OCO2)NC(=O)c1ccc(Br)cc1` the “activity, negative = inhibition” value was inactive: 8.29%.
With `NC(=O)c1ccccc1NS(=O)(=O)c1ccc2c(c1)OCCO2` the Potency was inconclusive [inhibitor, single point].
With `CC(C)(C)c1ccc(OCc2ccc(C(=O)NCc3cccnc3)o2)cc1` the Potency was inconclusive [inhibitor, partial curve, poor fit].
With `COc1ccccc1-n1c(-c2ccccc2)c[n+]2c1CCc1ccccc1-2` the Potency was “inactive”.
With `Cc1cc([N+](=O)[O-])nn1CCCC(=O)N1CCN(c2ccc(F)cc2)CC1` the Potency was inconclusive [inhibitor, single point].
In the case of `O=C(CN(C(=O)CNS(=O)(=O)c1ccccc1)c1ccc2c(c1)OCCO2)NCc1ccco1`, the “activity, negative = inhibition” value is reported as inactive: 1.8%.
For `NC(=O)Nn1c(CCC(=O)O)ccc1-c1ccc(Br)cc1`, the Potency was inconclusive [inhibitor, single point].
With `Cc1ccc(-c2noc(-c3ccccc3C(=O)N3CCCC3)n2)cc1` the Potency was inconclusive [inhibitor, single point].
In the case of `Cc1cc(NC(=O)Cn2nc3c(cc2=O)CCCC3)ccc1Br`, the Potency is reported as inconclusive [inhibitor, single point].
For `COc1ccc(/C=C2\OC(=O)c3c(OC)cccc32)cc1OC`, the Potency was inconclusive [inhibitor, partial curve].
For `CCN(C(=O)c1ccco1)c1nc(CC(=O)Nc2ccc(Cl)cc2)cs1`, the Potency was inconclusive [inhibitor, single point].
`COc1ccc(Br)cc1C(=O)Nc1ccccc1N1CCN(C(=O)c2ccccc2)CC1` was tested, and the Potency was inconclusive [inhibitor, single point].
With `Cn1c(-c2c(N)n(CCc3ccccc3)c3nc4ccccc4nc23)nc2ccccc21` the “activity, negative = inhibition” value was inactive: -10.9%.
For `CC(=O)Nc1nonc1NC(=O)CSc1ccccn1`, the “activity, negative = inhibition” value was inactive: -1.76%.
In the case of `COc1ccc(OC)c(S(=O)(=O)N2CCC(C(=O)Nc3ccc(C)c(C)c3)CC2)c1`, the Potency is reported as inconclusive [inhibitor, partial curve].
In the case of `CC1(C)CC(=O)C=C(NNC(=O)c2ccccc2O)C1`, the “activity, negative = inhibition” value is reported as inactive: 3.09%.
In the case of `O=C(c1ccc(Cl)cc1)C1CCCN(Cc2ccc(Oc3ncccn3)cc2)C1` (configuration not stated), the Potency is reported as active: 28.2 µM.
`CCOc1ccc(S(=O)(=O)NCc2ccccn2)cc1` was tested, and the Potency was inconclusive [inhibitor, partial curve].
For `N#C/C(=C\c1ccc(N2CCOCC2)o1)C(=O)NCC1CCCO1` (configuration not stated), the “activity, negative = inhibition” value was inactive: 0.48%.
`CCC1(c2ccc(Cl)cc2)NC(=S)N(c2ccccc2)N1` (configuration not stated) was tested, and the Potency was active: 12.6 µM.
